# According to article PMC7819943, “Rice protein-binding microarrays: a tool to detect cis-acting elements near promoter regions in rice”:
# The other results are listed elsewhere or left out.
# Molecular target: T1, OsWOX13 (Oryza sativa, UniProt Q5QMM3 1-267)
# T1 sequence: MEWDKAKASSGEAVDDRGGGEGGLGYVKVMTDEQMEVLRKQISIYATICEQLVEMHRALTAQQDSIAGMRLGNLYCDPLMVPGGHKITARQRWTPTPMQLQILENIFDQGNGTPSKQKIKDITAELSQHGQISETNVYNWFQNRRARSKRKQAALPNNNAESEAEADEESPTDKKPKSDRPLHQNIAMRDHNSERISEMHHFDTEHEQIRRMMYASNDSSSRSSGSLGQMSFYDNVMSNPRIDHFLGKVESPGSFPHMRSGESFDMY
# Experiment: protein-binding microarray (RPBM); PBS, 2% BSA, 51.3 ng/ul salmon testes DNA, 50 uM zinc acetate, 200 nM TF, 25 C, 1 h; high values mean tight binding
# Details: protein: recombinant; tags: N-terminal polyhistidine and DsRed monomer fusion (pET32a); label: CyDye5-dUTP incorporated in the synthesized complementary strand; 3' TTTTT single-stranded linker to array surface; dsDNA, one strand shown
# How it was run: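 Binding signal here means per-feature fluorescence intensity in arbitrary units. The values were read on an Axon 4000B scanner after a custom Agilent array, double-stranded by primer extension with Cy5-dUTP, was incubated with 200 nM protein at 25 °C for 1 h in PBS with 2% BSA, salmon testes DNA and 50 µM zinc acetate, then washed. The proteins were transcription factors with an N-terminal polyhistidine tag and DsRed, expressed in E. coli BL21-CodonPlus and purified on Ni–NTA.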
row,Sequence,binding signal
1,ACATCGAATATCCAATCAATTTAACCTGCAACCAACTTTTCGGAGTCACCTAGTGCAG,12000 fluorescence intensity (a.u.)
2,GAGATGTATAAATTTATTAAAATAGGAAAGTAATGCGGTGCGGAGTCACCTAGTGCAG,6500 fluorescence intensity (a.u.)
3,ACGATGACTGGTTTTCGGGTTCAGAGGTGTAATTTGGTCGCGGAGTCACCTAGTGCAG,11600 fluorescence intensity (a.u.)
4,TTCTAACAATGCCAGTAATTTGCGTCCTAATGTTGCTCATCGGAGTCACCTAGTGCAG,4300 fluorescence intensity (a.u.)
5,CAAAACCTATAGTTTTGTGATAAATAAAGATATTAAATGTCGGAGTCACCTAGTGCAG,23700 fluorescence intensity (a.u.)
6,GCTAAATAGGAAATGTAAACCCAGGTGCTTGTTGTAGCATCGGAGTCACCTAGTGCAG,3650 fluorescence intensity (a.u.)
7,TTTACTATGATTGTTTAGGATCCTACTTGAGACCACATACCGGAGTCACCTAGTGCAG,17800 fluorescence intensity (a.u.)
8,TTGAACATTAACAATCACACACCAATAATTTATCTGCATTCGGAGTCACCTAGTGCAG,8280 fluorescence intensity (a.u.)
9,GTGTAGGTTGGTAGTGATTGGGTCCAGATTGGTGGCTCAGCGGAGTCACCTAGTGCAG,9330 fluorescence intensity (a.u.)
10,AGAGTTGTGATTGGATGAGTAGTGCAGATATGTGGGAAAACGGAGTCACCTAGTGCAG,21600 fluorescence intensity (a.u.)
11,AATTTAATTAACTTCATATTTGGCATTACAGGAAGCTATGCGGAGTCACCTAGTGCAG,28000 fluorescence intensity (a.u.)
12,AAATTGTAATTGGCAACCAGCACATGAACCACTGGGTTTTCGGAGTCACCTAGTGCAG,4840 fluorescence intensity (a.u.)
13,CTTTATGCAATGATTGGGAGGAATGTGAAGAGGAGAAAGACGGAGTCACCTAGTGCAG,11900 fluorescence intensity (a.u.)
14,ATAGATTGACTTTGACCAAAGTCAAAACGTCATGTAAACTCGGAGTCACCTAGTGCAG,31300 fluorescence intensity (a.u.)
15,CAGCATTCAAATTAAGGTGAGATTATTAACATAGTCCCAGCGGAGTCACCTAGTGCAG,3700 fluorescence intensity (a.u.)
16,ATATGATTATATTTGATGATGCAGCAGTCACGAATGTTTTCGGAGTCACCTAGTGCAG,36200 fluorescence intensity (a.u.)
17,CGCTGATGAATCGTTGCGGGTTGCCGCTTTGGACACCGCCCGGAGTCACCTAGTGCAG,3410 fluorescence intensity (a.u.)
18,TTCGATTAGCATGTCATTGCACCAAACAAGCTTCTGCTTCCGGAGTCACCTAGTGCAG,3790 fluorescence intensity (a.u.)
19,ATTATACGTTTGCTACTAATTTATACATGATGTTCATATTCGGAGTCACCTAGTGCAG,3480 fluorescence intensity (a.u.)
20,AGCCGATTGCCTTTATATCATCATCTACATTGGACATATACGGAGTCACCTAGTGCAG,3150 fluorescence intensity (a.u.)
21,ATATACCCTTAAATAATTATCATAAACTCATTTTCATCCACGGAGTCACCTAGTGCAG,3990 fluorescence intensity (a.u.)
22,TTATTAATATATTTAATTTAATGATCCGAGATAACATATCCGGAGTCACCTAGTGCAG,15200 fluorescence intensity (a.u.)
23,GTCATTGATTGTTCAAAGCGATAATTATTATCAAACCGGTCGGAGTCACCTAGTGCAG,35500 fluorescence intensity (a.u.)
24,AGTGGGTGGTGATTAGCAGGGACACCTCATTTTCGTTAGCCGGAGTCACCTAGTGCAG,3760 fluorescence intensity (a.u.)
25,TTGAGACAGATAGTTTGGTACTATCAGATTTCAGTTCCGTCGGAGTCACCTAGTGCAG,3720 fluorescence intensity (a.u.)
26,ACCCGTGATTTGGTGGACTCGCGCATGGCGGTGATCAGCGCGGAGTCACCTAGTGCAG,7960 fluorescence intensity (a.u.)
27,TAACTTGCAATTAATTACAATCTTTCCAAAATAAGTACTCCGGAGTCACCTAGTGCAG,16900 fluorescence intensity (a.u.)

row,Sequence,binding signal
1,GTACAACTTAATTAGACCATAATATCTAAGGTTGCGTAATCGGAGTCACCTAGTGCAG,4570 fluorescence intensity (a.u.)
2,ATTACTAATTCCGCATATCAGCACACCGCACAAAATCCAACGGAGTCACCTAGTGCAG,3730 fluorescence intensity (a.u.)
3,CGGAATATAATTAAGAGAAATCCATGCGTAGGCCATGTAGCGGAGTCACCTAGTGCAG,5610 fluorescence intensity (a.u.)
4,TTAATTAGCTCTCTCACCATTCATCTATCTATGTCTCTTCCGGAGTCACCTAGTGCAG,5060 fluorescence intensity (a.u.)
5,TATTGCAGATTGGAGGCAGTAACTTCTTGGGAAAGGCACCCGGAGTCACCTAGTGCAG,3230 fluorescence intensity (a.u.)
6,CTATTCACCAATCACGCAAAACCCTTCTCTCCAAGAACACCGGAGTCACCTAGTGCAG,9240 fluorescence intensity (a.u.)
7,CGGCGTCAATCTTCTCCCCATCACGCGCTCGCTCCTCTCTCGGAGTCACCTAGTGCAG,17500 fluorescence intensity (a.u.)
8,CAAAATCAAATTATTTCAAATTTGATCAAGTTTGTATAGACGGAGTCACCTAGTGCAG,16700 fluorescence intensity (a.u.)
9,ATAGTGTTTAATTACAAATTGTCTGTCATCCCTGTCTGAACGGAGTCACCTAGTGCAG,12800 fluorescence intensity (a.u.)
10,TATTAAATTGTCAGTTTGTGTACCTCGGCTGATTCCTGGACGGAGTCACCTAGTGCAG,19400 fluorescence intensity (a.u.)
11,GAGGTTATTTGATCAAATTTTGTCGATAGTAAACAATGTACGGAGTCACCTAGTGCAG,4550 fluorescence intensity (a.u.)
12,GGGGTGTTAGTTAATTGCATGTATCCGTACGTGACTTGTACGGAGTCACCTAGTGCAG,7590 fluorescence intensity (a.u.)
13,TATTAAATTGGCTATAGGTGATTTGGAGCTAATAGTTAGCCGGAGTCACCTAGTGCAG,24000 fluorescence intensity (a.u.)
14,GTTGTAAAATTTAATTTTCTTACTATATAATTTTCTTTCACGGAGTCACCTAGTGCAG,7230 fluorescence intensity (a.u.)
15,ATAAGACAGACAGTCAAACGTTGGCACGAGAACCCATGGTCGGAGTCACCTAGTGCAG,6820 fluorescence intensity (a.u.)
16,AATGCAGGAACAGCATAAGCTTTGCGTATATTTGTATTAACGGAGTCACCTAGTGCAG,65500 fluorescence intensity (a.u.)
17,CACTTAATCATATTCATCATATTCAAACGGGACCTAAGGGCGGAGTCACCTAGTGCAG,8880 fluorescence intensity (a.u.)
18,GATAATTTCATCCTTACAAGAAACTGTCTAACCAATCGGGCGGAGTCACCTAGTGCAG,15100 fluorescence intensity (a.u.)
19,CGTAAACAAATAGGTCCAACATAATTTAACCTTCATAGAGCGGAGTCACCTAGTGCAG,5570 fluorescence intensity (a.u.)
20,TTTTAAATCAATGGTTAGTAATTGAAAATTCTTCTAAATTCGGAGTCACCTAGTGCAG,16600 fluorescence intensity (a.u.)
21,AATTATTTAAATCAATGTAACTCAAAAGTTAATAAACGTGCGGAGTCACCTAGTGCAG,13100 fluorescence intensity (a.u.)
22,CCTAATTACACCATGATTTAACAATATGGTGCTATAGTAACGGAGTCACCTAGTGCAG,31800 fluorescence intensity (a.u.)
23,CAAGATGATGAATGCCATTTGATTCTAGGCTAATAGTGGCCGGAGTCACCTAGTGCAG,7620 fluorescence intensity (a.u.)
24,TAAACACTTGAATGATTTTGTAATTGTTATTTAAGGGTCCCGGAGTCACCTAGTGCAG,8660 fluorescence intensity (a.u.)
25,CACATAAATTGTGAAGAGTGGAAATTGAGCTGTCATTTAGCGGAGTCACCTAGTGCAG,3590 fluorescence intensity (a.u.)
26,AAAGTTAAAATTTAAATTTTCGAATGTTAATTTTAAGATACGGAGTCACCTAGTGCAG,6010 fluorescence intensity (a.u.)
27,CCCGCGATTAGCAGCTCATTAATTCCACTCCAAATTTAATCGGAGTCACCTAGTGCAG,4280 fluorescence intensity (a.u.)
